In the RNAGym collection of RNA variant scans (doi:10.1093/nar/gkz1192):
The source gives no read counts; variants with many changes may rest on few reads.

B1: CPEB3 Ribozyme (parent)
chain: UAACAGGGGGCCACAGCAGAAGCGUUCACGUCGCAGCCCCUGUCAGAUUCUGGUGAAUCUGCGAAUUCUGCUGUAUAUCUC

Variants of: B1
Test: self-cleavage, relative activity (ratio to wild type); higher = more cleavage; in vitro, sequencing
In short: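 Relative activity compares each variant's cleaved/total read fraction with that of the unmutated ribozyme. To get these fractions, barcoded CPEB3 ribozyme libraries from rounds of error-prone PCR were transcribed with T7 RNA polymerase for 5 hours at 37°C and then given 15 min of DNase I treatment before EDTA was added. The RNAs were reverse transcribed with template switching and sequenced on Illumina, and DNA sequencing linked barcodes to variants. A minimum of 5 reads applied, and three batches were averaged.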
Work on A3G A18G U26C U74C yielded a self-cleavage of 0.59.
Variant A3G A57U U69C U80C has a self-cleavage of 0.34.
For A3G A35G U41A, the self-cleavage was 0.28.
In the case of A3G A15G U67C, the self-cleavage is reported as 0.41.
For A3G A13U C17A A35G, the self-cleavage was 0.86.
A3G A18U U25C U31C C32U C38G U41C showed a self-cleavage of 0.09.
Work on A3G A20G A64G A65G U67C yielded a self-cleavage of 0.21.
For A3G C11A U31C U80C, the self-cleavage was 0.59.
With A3G A45G U51A A56G the self-cleavage was 0.38.
Variant A3G A75G U80C has a self-cleavage of 0.78.
For A3G A28U A35G U54C A64G U72C A77G, the self-cleavage was 1.24.
A3G C11U U66C U80C gave a self-cleavage of 0.12.
Variant A3G A15U C38U A47U U58C A64G A77U has a self-cleavage of 0.04.
A3G C11U U25A U74C gave a self-cleavage of 0.53.
Work on A3G A18G A28G A35G G52U yielded a self-cleavage of 0.67.
In the case of A3G A18G A47U A65G U69A U76A, the self-cleavage is reported as 0.13.
In the case of A3G A18G A35G U58C U69C, the self-cleavage is reported as 1.22.
In the case of A3G A13U U31A U69C, the self-cleavage is reported as 0.3.
In the case of A3G A20U A21C A35U U49C A57U U67A, the self-cleavage is reported as 0.17.
A3G A21G U31A A47G U58C gave a self-cleavage of 0.19.
For A3G C11G U25C A28U U60C U78C, the self-cleavage was 0.08.
A3G A47U A56G U72C gave a self-cleavage of 0.46.
Work on A3G A65U U72G yielded a self-cleavage of 0.25.
A3G A15G A20G U26A gave a self-cleavage of 0.42.
A3G A28U U49C U67C showed a self-cleavage of 0.11.
A3G A20G G36U C40U U54C U58C gave a self-cleavage of 0.07.
With A3G A15G A28G A47G A64G U80C the self-cleavage was 0.64.
For A3G C11U A15U, the self-cleavage was 0.43.
Work on A3G A45U G61A C62A yielded a self-cleavage of 0.13.
Work on A3G A21G U25C U41C U54C yielded a self-cleavage of 0.
A3G A20U A35U U58C gave a self-cleavage of 0.04.
Work on A3G A45G U58G U78G yielded a self-cleavage of 0.31.
In the case of A3G A45U A56C, the self-cleavage is reported as 0.25.
A3G A18G G22A U25C U74A showed a self-cleavage of 0.64.
A3G A28G A57G U60C gave a self-cleavage of 0.06.
A3G A18U U43C U58A showed a self-cleavage of 0.17.
Variant A3G A15G U26C U80C has a self-cleavage of 0.48.
In the case of A3G C12A A45U U49C U66C, the self-cleavage is reported as 0.24.
A3G A15G U41G A77U gave a self-cleavage of 0.46.
With A3G A20G U43C G52A G63A U72A the self-cleavage was 0.12.
A3G A21G U41C U58G showed a self-cleavage of 0.12.
Work on A3G A45G A77G yielded a self-cleavage of 0.97.
In the case of A3G A45C U58C, the self-cleavage is reported as 0.14.
With A3G A21G A35U U43A the self-cleavage was 0.18.
A3G A18U A35G U49C C68A gave a self-cleavage of 0.32.
A3G A20U U48C G53C A57G gave a self-cleavage of 0.34.
Variant A3G A20U G46A has a self-cleavage of 0.35.
For A3G C11A A20G U25A U48C, the self-cleavage was 0.11.
A3G A15G U25C A45G U54A showed a self-cleavage of 0.33.
A3G A35U A56G gave a self-cleavage of 0.39.
In the case of A3G A21G U60C U67C, the self-cleavage is reported as 0.09.
Variant A3G C4U A21G U49C has a self-cleavage of 0.61.
For A3G A45C U72C, the self-cleavage was 0.65.
A3G C12A G22A U31C U41A U78C U80C showed a self-cleavage of 0.05.
Variant A3G A56G U58G has a self-cleavage of 0.3.
A3G A20U U51C G52A showed a self-cleavage of 0.64.
With A3G A20G A21G U41A U43G U66G A75G the self-cleavage was 0.08.
With A3G A21G U49A U69C the self-cleavage was 0.23.
Variant A3G C11G A47G U78A has a self-cleavage of 0.27.
Work on A3G A47G U51C G52A U54A yielded a self-cleavage of 0.73.
In the case of A3G A35G A57U, the self-cleavage is reported as 1.24.
With A3G C11U A21U C39A U58C the self-cleavage was 0.07.
In the case of A3G A15G A35U, the self-cleavage is reported as 0.51.
Variant A3G A35G A56G has a self-cleavage of 1.2.
Work on A3G A18G A21G U31C U51A U78C yielded a self-cleavage of 0.47.
For A3G A13U C23A U25C A56U U60C G73A, the self-cleavage was 0.04.
For A3G A20G U49G, the self-cleavage was 0.36.
Work on A3G A28G A35G A56U yielded a self-cleavage of 0.96.
Work on A3G A21G U25G A64U yielded a self-cleavage of 0.15.
Work on A3G A20G U48A U60A U66C U80A yielded a self-cleavage of 0.16.
Work on A3G A21G U26G U67C yielded a self-cleavage of 0.14.
For A3G A18G G33A U48C U66C, the self-cleavage was 0.07.
For A3G C4U U51A, the self-cleavage was 1.17.
Work on A3G C4U U26A A56G C62U yielded a self-cleavage of 0.27.
For A3G A15G G52A, the self-cleavage was 0.44.
For A3G A28G A35U U60C, the self-cleavage was 0.23.
Work on A3G C4U A28G A35U yielded a self-cleavage of 0.68.
A3G A20G U58C G73A showed a self-cleavage of 0.7.
A3G A15G U25C A28G A35G U60C showed a self-cleavage of 0.32.
A3G A15U A77G gave a self-cleavage of 0.67.
Work on A3G A35U U67C U78C yielded a self-cleavage of 0.14.
A3G A20U U54C gave a self-cleavage of 0.12.
A3G A15G U54C gave a self-cleavage of 1.01.
For A3G A18U A35G, the self-cleavage was 0.83.
A3G A64G A77U gave a self-cleavage of 0.74.
With A3G A28G A57G A65G the self-cleavage was 0.54.
In the case of A3G A35G U43C U48C U76G, the self-cleavage is reported as 0.57.
A3G A15G U26A A45C A65G U72C gave a self-cleavage of 0.49.
A3G A20G U66G A75G U80C showed a self-cleavage of 0.25.
In the case of A3G C4A A15U A20U U69C, the self-cleavage is reported as 0.16.
Work on A3G A15G G30A A45U U49A U51A yielded a self-cleavage of 0.11.
Variant A3G A13U A77C has a self-cleavage of 0.75.
Variant A3G A15G G30C A57G U74A U80C has a self-cleavage of 0.65.
For A3G A20G U51C U54C U80C, the self-cleavage was 0.95.
A3G A13U C32A U41C showed a self-cleavage of 0.4.
A3G C4G C17G A28C showed a self-cleavage of 0.48.
With A3G A18U A57G U69A G70A U80A the self-cleavage was 0.37.
A3G A35C U54C gave a self-cleavage of 0.96.
Work on A3G A18G U41C U49C yielded a self-cleavage of 0.49.
Work on A3G A18G A65G yielded a self-cleavage of 0.31.
With A3G A35U U48C G52A U58C U67C C68G the self-cleavage was 0.25.
With A3G A21G U26C A57G A75G the self-cleavage was 0.34.
Work on A3G A15G A45G G61A yielded a self-cleavage of 0.5.
For A3G A15U U43C, the self-cleavage was 0.27.
For A3G A13U U31C A56G U58C U78C, the self-cleavage was 0.48.
In the case of A3G A18U A45G U60A, the self-cleavage is reported as 0.19.
A3G A64G U74A showed a self-cleavage of 1.15.
For A3G C11G G16U A28G U48C, the self-cleavage was 0.27.
A3G A18U C29U A47G A65U U67C gave a self-cleavage of 0.38.
For A3G A20G A35U, the self-cleavage was 0.69.
A3G A21U U26C A65G C79A gave a self-cleavage of 0.06.
In the case of A3G A15G A45U A64U U69A G73A, the self-cleavage is reported as 0.13.
Variant A3G A15U A18G U69C has a self-cleavage of 0.99.
In the case of A3G A20G A57G, the self-cleavage is reported as 0.87.
Variant A3G A35U U43C A45G A57C U60G has a self-cleavage of 0.08.
A3G C12U A15G A20G U49C U69C gave a self-cleavage of 0.17.
Variant A3G C4U U31G A45U U54A U60C has a self-cleavage of 0.29.
Work on A3G A35G C44U U80C yielded a self-cleavage of 1.19.
A3G A13U U49A U74A gave a self-cleavage of 1.05.
In the case of A3G A18G U26C U41A U66C U74A, the self-cleavage is reported as 0.08.
A3G A20G U25C U69A C71U U74C gave a self-cleavage of 0.12.
In the case of A3G A28U U48C U51C U60C A77G, the self-cleavage is reported as 0.14.
Work on A3G A21G A45G U49C U54A U76C yielded a self-cleavage of 0.08.
Work on A3G A15U U41A U51C U69A yielded a self-cleavage of 0.31.
For A3G C11U A15G U51C C62U A64U, the self-cleavage was 0.14.
Work on A3G C11A A28U yielded a self-cleavage of 0.57.
For A3G A20G A57G U60C U78C, the self-cleavage was 0.34.
A3G A21G C27U A28U G33U A56G gave a self-cleavage of 0.29.
With A3G A15G A65G U66C the self-cleavage was 0.62.
A3G C4U A45G showed a self-cleavage of 1.06.
A3G A18G A35G U43A showed a self-cleavage of 0.84.
For A3G A77U U80C, the self-cleavage was 0.99.
With A3G A45C U54C U58C U80C the self-cleavage was 0.28.
For A3G A15G A65U, the self-cleavage was 0.33.
With A3G A15G A64C A65G U67C A77G the self-cleavage was 0.29.
In the case of A3G A20G C38U U41C, the self-cleavage is reported as 0.54.
Variant A3G A15U U49A A75C has a self-cleavage of 0.56.
For A3G A56G A57G, the self-cleavage was 0.44.
Work on A3G A15U U60A yielded a self-cleavage of 0.15.
Work on A3G A21G A28G G42A G55A A56G yielded a self-cleavage of 0.08.
For A3G C4U U49A A57G, the self-cleavage was 0.55.
A3G A20G U48C U51C gave a self-cleavage of 0.62.
Work on A3G A28U A57G A64U U72A yielded a self-cleavage of 0.22.
Variant A3G A35G C38U A45G has a self-cleavage of 1.27.
Work on A3G A13U A45G A47U U60C yielded a self-cleavage of 1.12.
Work on A3G A28G U60C U69A yielded a self-cleavage of 0.15.
For A3G A21G A35G U48C U69C, the self-cleavage was 0.36.
A3G A15G G30A A64U U74A gave a self-cleavage of 0.12.
A3G A18G U54C U69C showed a self-cleavage of 1.16.
A3G A18U A20U A35U U41A U54A A65G showed a self-cleavage of 0.08.
Work on A3G C11G A47G U48C U54C yielded a self-cleavage of 0.09.
With A3G A18G A35U A45G A47U U76A the self-cleavage was 0.07.
With A3G A21G U26C U72C the self-cleavage was 0.79.
A3G A35U C62G U72A showed a self-cleavage of 0.
A3G A15G A18G U41C U67A gave a self-cleavage of 0.24.
In the case of A3G A20G C40A, the self-cleavage is reported as 0.21.
With A3G A20G U26C U51C the self-cleavage was 0.64.
For A3G A15U U41C C50A G63U, the self-cleavage was 0.77.
A3G C4U C37U C40A U51C U67C gave a self-cleavage of 0.01.
In the case of A3G A21U U41C, the self-cleavage is reported as 0.43.
A3G A18G A35U U49C U69G showed a self-cleavage of 0.1.
In the case of A3G A15G U54C G73A U80C, the self-cleavage is reported as 1.25.
For A3G A18U G36A U80C, the self-cleavage was 0.45.
For A3G C11A A18C A20G A47G U60C, the self-cleavage was 0.07.
Work on A3G A57G U76C yielded a self-cleavage of 0.96.
Work on A3G A35G U41A A47U A57G yielded a self-cleavage of 0.42.
Work on A3G A18G U48C U51C yielded a self-cleavage of 0.35.
